# Measurements: PubChem BioAssay AID463173 (ICCB-Longwood Screening Facility, Harvard Medical School, 2010)
# Hit rate of the full screen: of about 52,000 compounds, about 4,300 (8.3%) were called active. Rule as the data show it: active = survival mostly below about 52% (no sharp cut-off); inactive = mostly above about 56%. The list shows a part of the results.
# Test system: DeltatarO mutant
# Assay: S. aureus survival, RN4220 and DeltatarO strains – OD600, teichoic acid synthesis inhibitors, primary screen (AID 463173)
# Details: S. aureus RN4220 wild type/DeltatarO growth, OD600, 18 h, stronger effect = lower value, screened at 18.75 µg/mL (by protocol)
row,SMILES,survival
1,Cc1ccc(S(=O)(=O)c2c(O)cc(C)c(NS(=O)(=O)c3ccc(Br)cc3)c2C)cc1,inactive: 50%
2,CC(=O)N1c2ccccc2C(=O)C1N1CCN(c2ccccc2F)CC1 (configuration not stated),inactive: 90%
3,COc1ccc(-c2noc(CN(C)S(=O)(=O)c3c(C)cc(C)cc3C)n2)cc1OC,inactive: 45%
4,CCC(C(=O)Nc1cccc(Cl)c1C)n1nc(C)c2sc3ccccc3c2c1=O (configuration not stated),inactive: 72%
5,COc1ccc(C)cc1NC(=O)c1ccc(NS(=O)(=O)c2c(C)noc2C)cc1,inactive: 83%
6,Cc1[nH]n(-c2ccccc2)c(=O)c1/C=N/NC(=O)c1ccccc1,inactive: 50%
7,Cc1ccc(-c2nc(CCNC(=O)c3ccc(C)c(C)c3)cs2)cc1,inactive: 88%
8,CCOC(=O)c1ccc(NC2=CC(c3ccc(OCC)cc3)N(c3ccc(C(=O)OCC)cc3)C2=O)cc1 (configuration not stated),inactive: 59%
9,CCOC(=O)c1cnc2cc(C(F)(F)F)ccc2c1Nc1cc(C)ccc1OC,inactive: 71%
10,CC(C)(C)OC(=O)N1CCC(c2c(C(=O)NCc3ccccc3)cnn2-c2cccc(F)c2)CC1,inactive: 108%
11,CCCCn1cc(S(=O)(=O)c2ccc(C)cc2)c(=O)c2cc(F)c(N3CCCCC3)cc21,inactive: 90%
12,Cc1cc(O)c(C(c2ccccc2)N2CCCCC2)c(=O)n1Cc1ccco1 (configuration not stated),inactive: 80%
13,CCOc1ccccc1NC(=O)CSc1nnc2[nH]c(=O)cc(C)n12,inactive: 124%
14,COc1ccccc1-c1nc2n(n1)C(c1ccccc1Cl)C(C(=O)Nc1cccnc1)=C(C)N2 (configuration not stated),inactive: 88%
15,Cc1c(C(=O)N(Cc2ccccc2F)C2CCS(=O)(=O)C2)oc2ccccc12 (configuration not stated),inactive: 84%
16,COc1ccc(-c2nnc(SCC(=O)Nc3cccc(C(F)(F)F)c3)s2)cc1,inactive: 82%
17,COc1ccc(S(=O)(=O)NCC(c2cccs2)S(=O)(=O)c2ccccc2)cc1OC (configuration not stated),inactive: 105%
18,CCOc1ccc(C(=O)c2cn(CC(=O)Nc3ccc(Cl)cc3)c3cc4c(cc3c2=O)OCO4)cc1,inactive: 127%
19,Cc1nn(C)c2c1c(C(F)(F)F)cc(=O)n2C(C)C(=O)Nc1ccccc1F (configuration not stated),inactive: 80%
20,CC(=O)N1CCc2cc(Br)cc(S(=O)(=O)CCC(=O)N3CCN(c4ccc(F)cc4)CC3)c21,inactive: 67%
21,Cc1cc(NNC(=S)S)nc(N)n1,inactive: 107%
22,COc1ccc(NC(=O)c2c(NCc3cccs3)sc3c2CCC(C)C3)c(OC)c1 (configuration not stated),inactive: 55%

row,SMILES,survival
1,O=C(CSc1nnc(-c2ccccc2Cl)o1)N1CCCc2ccccc21,active: 35%
2,COc1cccc(NS(=O)(=O)c2ccc3c(c2)n(C)c(=O)n3C)c1,inactive: 46%
3,CN(C(=O)c1ccc2c(c1)N(Cc1cccc(Cl)c1)C(=O)c1ccccc1S2(=O)=O)C1CCCCC1,inactive: 75%
4,CSc1cccc(NC(=O)C2CCN(c3nc4ccccc4[nH]3)CC2)c1,inactive: 75%
5,Cc1ccc(Cn2c(SCc3ccc(C(=O)NC4CCCCC4)cc3)nc3ccncc32)cc1,inactive: 71%
6,COCCNC(=O)c1cnc2sc(N3CCCCC3)nn2c1=O,inactive: 76%
7,Cc1c(-c2nc(-c3ccccc3)no2)nnn1-c1ccc(F)c(Cl)c1,inactive: 83%
8,CCc1ccc(NC(=O)Cn2c(=O)n(-c3ccc(Cl)c(Cl)c3)c(=O)c3c(C)c(C)sc32)cc1,inactive: 97%
9,COc1ccc(Cl)c2sc(NC(=O)c3ccc(S(=O)(=O)N4CCOCC4)cc3)nc12,inactive: 69%
10,Cc1ccc(CN2CCC(CNC(=O)c3cnn(-c4ccccc4Cl)c3C3CCN(C(=O)OC(C)(C)C)CC3)CC2)cc1,inactive: 94%
11,COc1cc(/C=C/c2nc(C#N)c(N3CCN(C)CC3)o2)cc(OC)c1OC,inactive: 73%
12,Cc1ccc(Nc2c(-c3c[nH]c4ccccc34)nc3ccccn23)cc1,inactive: 114%
13,Cc1ccc2oc(=O)c3cnn(CC(=O)N4CCN(c5ccc(F)cc5)CC4)c3c2c1,inactive: 106%
14,CC(C)Oc1ccccc1-c1nc(SCC(=O)c2ccc(F)cc2)n[nH]1,active: 40%
15,Cc1ccc(CNC(=O)CSc2nc3c(sc4ccccc43)c(=O)n2CCCOC(C)C)cc1,inactive: 122%
16,COc1ccc(OC)c(CCNC(=O)c2cc3c(s2)-c2c(C)cccc2OC3)c1,inactive: 79%
17,Cc1ccc(-n2c(=O)c3sc4ccccc4c3n(CC(=O)NC3CCCC3)c2=O)cc1C,inactive: 69%
18,Cc1ccc(NC(=O)Cn2c(=O)n(Cc3ccccc3)c(=O)c3sc4ccccc4c32)cc1,inactive: 68%
19,Fc1ccc(C(c2nnc(-c3ccccc3)o2)N2CCN(c3cccc(Cl)c3)CC2)cc1 (configuration not stated),inactive: 91%
20,CCc1ccccc1NC(=O)CSc1nncn2c1cc1oc(C)cc12,inactive: 62%
21,COc1ccc(CN2C(=O)C(NC(=O)c3cccc(C)c3)(C(F)(F)F)N=C2c2ccccc2)cc1 (configuration not stated),inactive: 74%
22,CCOc1ccc(NC(=O)CSc2cn(CCNC(=O)c3ccccc3F)c3ccccc23)cc1,inactive: 71%

row,SMILES,survival
1,Cn1c2ccccc2c2cnn(CC(=O)NCCCN3CCCCC3)c(=O)c21,inactive: 92%
2,CCOC(=O)C(CC)n1nnc2sc(-c3ccccc3)cc2c1=O (configuration not stated),inactive: 62%
3,CC(=O)N1c2ccccc2Sc2ccccc21,inactive: 102%
4,CC(=O)c1cccc(NC(=O)CSc2nnc3ccc(-c4ccc(Br)cc4)nn23)c1,inactive: 75%
5,O=C(NCCS(=O)(=O)N1CCN(c2ccc(F)cc2)CC1)C(c1ccccc1)c1ccccc1,inactive: 113%
6,COC(=O)c1ccc(NC(=O)CSc2nc3cc4c(cc3cc2C#N)OCCO4)cc1,inactive: 87%
7,Cc1ccc(S(=O)(=O)NCC2CCCO2)cc1 (configuration not stated),inactive: 69%
8,Cc1ccc(-n2ncc(C(=O)N3CCN(c4cc(Cl)ccc4C)CC3)c2C2CCN(C(=O)OC(C)(C)C)CC2)cc1,inactive: 100%
9,COC(=O)c1ccc(Cl)cc1NC(=O)Nc1nnc(N2CCCC2)s1,inactive: 93%
10,COc1ccc(CCNC(=O)c2ccc3c(c2)N(Cc2ccccc2)C(=O)c2ccccc2S3=O)cc1OC (configuration not stated),inactive: 70%
11,Cc1ccc(C)c(Cn2c3ccccc3c3cnn(CC(=O)NC(C)CCc4ccccc4)c(=O)c32)c1 (configuration not stated),inactive: 81%
12,CCS(=O)(=O)c1ncc(N(Cc2ccccc2)Cc2ccco2)c(C(=O)Nc2cccc(Cl)c2C)n1,inactive: 60%
13,COc1ccccc1C(=O)Nc1ccc2nc(SCC(=O)N(C)c3ccccc3)sc2c1,inactive: 74%
14,CCOc1ccc(NC(=O)C(Cc2ccccc2)NS(=O)(=O)c2ccc3c(c2)oc(=O)n3C)cc1 (configuration not stated),inactive: 92%
15,CC(=O)Nc1ccc(Cc2ccncc2)cc1,inactive: 87%
16,CCN(CC)S(=O)(=O)c1ccc(NC(=O)CN(c2ccccc2)S(=O)(=O)N(C)C)cc1,inactive: 69%
17,O=C(CN1C(=O)C2(SCC(=O)N2c2cccc(Cl)c2)c2ccccc21)NCCc1ccccc1 (configuration not stated),inactive: 104%
18,CCOc1ccc(NC(=O)c2c(Nc3ccccc3C)sc(C(=O)c3ccccc3)c2N)cc1,inactive: 94%
19,CCOc1ccc(CNC(=O)c2ccc3c(c2)c(C)c(C)n3Cc2ccccc2)cc1OC,inactive: 96%
20,CC(NC(=O)c1ccc2c(c1)N(Cc1ccc(Cl)cc1)C(=O)CS2)c1ccccc1 (configuration not stated),active: 48%
21,CCN(c1cccc(C)c1)S(=O)(=O)c1cc(Br)cc2c1N(C(C)=O)C(C)C2 (configuration not stated),active: 51%
22,COc1ccc2c(c1)c1c(c(=O)n(-c3ccccc3C)c(=O)n1Cc1cccc(C(F)(F)F)c1)n2C,inactive: 94%

row,SMILES,survival
1,CC(C)OC(=O)c1ccc(Cn2nnc3sc4c(c3c2=O)CCCC4)cc1,active: 20%
2,CCc1ccc(-n2nnc(-c3nc(-c4cccs4)no3)c2N)cc1,inactive: 66%
3,CC1CCN(C(=O)CSc2n[nH]c(-c3ccc(F)cc3)n2)CC1,inactive: 92%
4,CCCN(c1c(C)n(C)n(-c2ccccc2)c1=O)S(=O)(=O)c1ccc(C)cc1,inactive: 63%
5,COc1ccc(CNc2ncnc3c2nc2n3CCCC2)cc1,inactive: 120%
6,COc1ccc(CCn2c3c(c(=O)[nH]c2=O)C(NC(=O)c2ccc(Cl)cc2)(C(F)(F)F)C(=O)N3)cc1OC (configuration not stated),inactive: 86%
7,C/C(COc1ccccc1OCC(=O)O)=N\NC(=O)c1ccncc1,inactive: 65%
8,O=C(Nn1c(Cc2ccccc2)nc2ccccc2c1=O)c1ccco1,inactive: 98%
9,Cc1cccc(OCC(=O)Nc2ccccc2C(=O)OCc2cc(=O)n3ccsc3n2)c1,inactive: 77%
10,COc1ccc(NC(=O)c2c(C)oc3ccc(O)c(CN4CCC(C)CC4)c23)cc1Cl,active: 55%
11,Cc1cccc(CNC(=O)Cn2c(-c3cccs3)cc3ccccc32)c1,inactive: 116%
12,Cn1ncc2c(Nc3cc(C(F)(F)F)ccc3Cl)ncnc21,inactive: 91%
13,COc1cccc(NC(=O)CN2C(=O)c3cccc4cccc2c34)c1,inactive: 80%
14,O=C(c1ccc(F)cc1)c1cn(Cc2ccccc2F)c2cc3c(cc2c1=O)OCCO3,inactive: 83%
15,Cc1cccc(-c2nc(CN3CCCC(C(=O)N4CCN(c5cc(Cl)ccc5C)CC4)C3)c(C)o2)c1 (configuration not stated),inactive: 68%
16,Cc1ccc(C(=O)C(C)OC(=O)C2CC(=O)N(C3CCCCC3)C2)cc1 (configuration not stated),inactive: 98%
17,Oc1ccc(Cl)cc1C1=Nc2ccccc2N=C(c2ccccc2)C1,inactive: 132%
18,Cc1ccc(CSc2nc3cccnc3n2Cc2ccc(C(=O)NCc3ccco3)cc2)cc1,inactive: 83%
19,CCc1nc2ccc(C(=O)N3CCN(c4cc(Cl)ccc4C)CC3)cc2nc1CC,inactive: 75%
20,CC(C)OC(=O)Cn1nnc(-c2ccccc2)n1,inactive: 82%
21,Cc1ccc(S(=O)(=O)NCC2CCC(C(=O)NCCc3ccccc3)CC2)cc1 (configuration not stated),inactive: 81%
